These results are taken from PMC7719147.

Chains of the proteins cited; added tags and fusions are not shown. Residues count along the entry.
UniProt Q7Z434: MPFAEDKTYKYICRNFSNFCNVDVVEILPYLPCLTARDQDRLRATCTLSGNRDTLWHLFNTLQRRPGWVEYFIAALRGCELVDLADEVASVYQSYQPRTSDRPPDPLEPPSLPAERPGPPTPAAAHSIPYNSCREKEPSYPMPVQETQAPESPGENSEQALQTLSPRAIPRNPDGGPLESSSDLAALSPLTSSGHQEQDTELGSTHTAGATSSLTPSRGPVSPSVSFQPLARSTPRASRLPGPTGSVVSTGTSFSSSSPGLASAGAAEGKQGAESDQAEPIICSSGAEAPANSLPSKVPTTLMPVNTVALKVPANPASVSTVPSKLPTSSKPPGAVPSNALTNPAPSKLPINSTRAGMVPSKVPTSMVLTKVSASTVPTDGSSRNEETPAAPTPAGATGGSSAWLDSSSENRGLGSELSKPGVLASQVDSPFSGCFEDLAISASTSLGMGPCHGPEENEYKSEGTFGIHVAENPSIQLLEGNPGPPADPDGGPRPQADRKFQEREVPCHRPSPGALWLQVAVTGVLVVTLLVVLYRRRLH
UniProt P03430: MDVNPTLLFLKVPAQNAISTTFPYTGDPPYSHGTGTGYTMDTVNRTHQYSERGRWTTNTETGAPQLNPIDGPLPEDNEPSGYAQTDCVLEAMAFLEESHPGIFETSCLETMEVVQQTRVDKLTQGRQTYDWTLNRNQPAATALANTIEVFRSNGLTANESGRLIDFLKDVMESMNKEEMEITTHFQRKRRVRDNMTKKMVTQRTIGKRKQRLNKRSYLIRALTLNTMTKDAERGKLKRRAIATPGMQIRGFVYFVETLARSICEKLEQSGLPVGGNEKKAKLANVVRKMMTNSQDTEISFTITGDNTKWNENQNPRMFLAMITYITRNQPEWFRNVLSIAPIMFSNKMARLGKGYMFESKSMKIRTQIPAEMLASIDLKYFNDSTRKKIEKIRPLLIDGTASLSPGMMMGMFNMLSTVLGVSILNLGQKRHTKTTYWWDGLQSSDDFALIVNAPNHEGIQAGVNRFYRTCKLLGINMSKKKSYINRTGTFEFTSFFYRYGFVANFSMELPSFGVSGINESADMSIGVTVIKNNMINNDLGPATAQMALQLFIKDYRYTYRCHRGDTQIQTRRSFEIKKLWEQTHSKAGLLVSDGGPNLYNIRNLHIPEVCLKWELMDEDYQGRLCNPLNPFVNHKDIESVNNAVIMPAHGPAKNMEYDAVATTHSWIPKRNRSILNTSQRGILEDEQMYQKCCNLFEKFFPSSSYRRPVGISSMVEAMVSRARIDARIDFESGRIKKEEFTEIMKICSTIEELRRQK
UniProt P15682: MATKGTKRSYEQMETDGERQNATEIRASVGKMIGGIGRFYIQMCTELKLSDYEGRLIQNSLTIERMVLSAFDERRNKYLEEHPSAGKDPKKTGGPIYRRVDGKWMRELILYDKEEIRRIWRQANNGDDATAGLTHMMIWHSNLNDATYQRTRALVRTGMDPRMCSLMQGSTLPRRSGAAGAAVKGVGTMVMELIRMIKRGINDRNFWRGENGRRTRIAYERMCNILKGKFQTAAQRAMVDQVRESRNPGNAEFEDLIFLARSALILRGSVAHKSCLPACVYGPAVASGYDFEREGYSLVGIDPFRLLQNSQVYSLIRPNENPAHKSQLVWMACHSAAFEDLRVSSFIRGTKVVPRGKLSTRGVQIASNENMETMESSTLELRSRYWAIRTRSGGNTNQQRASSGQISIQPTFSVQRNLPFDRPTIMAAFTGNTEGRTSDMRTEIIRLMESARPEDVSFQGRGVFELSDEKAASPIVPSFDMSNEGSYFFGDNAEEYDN
UniProt P03470: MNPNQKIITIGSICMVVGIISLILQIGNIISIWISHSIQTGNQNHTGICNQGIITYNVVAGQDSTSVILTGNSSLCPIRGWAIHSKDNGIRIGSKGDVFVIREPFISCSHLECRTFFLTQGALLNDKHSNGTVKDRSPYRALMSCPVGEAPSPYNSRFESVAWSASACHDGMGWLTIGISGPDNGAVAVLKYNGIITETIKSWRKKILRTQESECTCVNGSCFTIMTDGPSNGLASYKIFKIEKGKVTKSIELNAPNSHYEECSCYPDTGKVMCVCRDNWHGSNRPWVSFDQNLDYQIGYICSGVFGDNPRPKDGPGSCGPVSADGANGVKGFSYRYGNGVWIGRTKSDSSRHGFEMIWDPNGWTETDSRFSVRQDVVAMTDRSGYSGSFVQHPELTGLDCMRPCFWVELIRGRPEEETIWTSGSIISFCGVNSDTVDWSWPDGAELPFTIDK
UniProt P03427: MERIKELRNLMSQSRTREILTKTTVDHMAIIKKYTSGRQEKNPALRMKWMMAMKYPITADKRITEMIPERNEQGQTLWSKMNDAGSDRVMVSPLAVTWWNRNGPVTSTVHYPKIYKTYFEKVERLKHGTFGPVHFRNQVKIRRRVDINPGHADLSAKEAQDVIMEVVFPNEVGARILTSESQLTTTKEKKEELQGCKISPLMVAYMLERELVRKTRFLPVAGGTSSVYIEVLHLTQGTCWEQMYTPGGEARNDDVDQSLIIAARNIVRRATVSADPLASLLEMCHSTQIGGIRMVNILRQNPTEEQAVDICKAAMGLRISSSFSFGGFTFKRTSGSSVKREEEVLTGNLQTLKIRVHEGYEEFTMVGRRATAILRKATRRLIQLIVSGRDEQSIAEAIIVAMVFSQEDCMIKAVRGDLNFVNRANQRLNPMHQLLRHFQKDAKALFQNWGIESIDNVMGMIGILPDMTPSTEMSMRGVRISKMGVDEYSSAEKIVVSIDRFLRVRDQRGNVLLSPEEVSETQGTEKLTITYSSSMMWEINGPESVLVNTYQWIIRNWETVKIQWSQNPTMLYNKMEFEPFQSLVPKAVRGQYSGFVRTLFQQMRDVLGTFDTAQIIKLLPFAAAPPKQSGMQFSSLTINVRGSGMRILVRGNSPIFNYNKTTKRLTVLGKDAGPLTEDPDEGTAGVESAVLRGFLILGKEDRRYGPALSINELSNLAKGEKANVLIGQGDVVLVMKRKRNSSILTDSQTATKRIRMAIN
UniProt P03454, residues 18-565: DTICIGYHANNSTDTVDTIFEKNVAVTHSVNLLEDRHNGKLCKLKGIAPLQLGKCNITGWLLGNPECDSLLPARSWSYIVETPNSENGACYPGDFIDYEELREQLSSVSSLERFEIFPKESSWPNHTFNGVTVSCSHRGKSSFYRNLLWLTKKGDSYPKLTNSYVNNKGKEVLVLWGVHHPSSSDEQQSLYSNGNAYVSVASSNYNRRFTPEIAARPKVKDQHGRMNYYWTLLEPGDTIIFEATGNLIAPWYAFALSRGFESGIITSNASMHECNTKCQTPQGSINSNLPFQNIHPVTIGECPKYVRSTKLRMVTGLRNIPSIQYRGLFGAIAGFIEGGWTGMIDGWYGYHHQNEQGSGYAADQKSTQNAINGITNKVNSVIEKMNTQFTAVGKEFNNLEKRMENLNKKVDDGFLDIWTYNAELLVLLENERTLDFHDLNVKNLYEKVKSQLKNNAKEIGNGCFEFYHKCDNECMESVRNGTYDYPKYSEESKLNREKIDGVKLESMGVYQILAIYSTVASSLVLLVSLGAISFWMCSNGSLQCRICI
UniProt P05777: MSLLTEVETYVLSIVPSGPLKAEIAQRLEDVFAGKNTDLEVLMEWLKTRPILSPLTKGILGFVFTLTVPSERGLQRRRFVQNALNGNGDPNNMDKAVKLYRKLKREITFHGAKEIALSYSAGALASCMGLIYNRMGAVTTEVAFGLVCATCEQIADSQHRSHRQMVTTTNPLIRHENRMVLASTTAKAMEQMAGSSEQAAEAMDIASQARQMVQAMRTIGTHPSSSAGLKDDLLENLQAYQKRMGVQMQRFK

For this assay, the target named is T1, TRIM35-V5 (tripartite motif containing 35, V5-tagged) (human) (UniProt Q9UPQ4).
T1 sequence: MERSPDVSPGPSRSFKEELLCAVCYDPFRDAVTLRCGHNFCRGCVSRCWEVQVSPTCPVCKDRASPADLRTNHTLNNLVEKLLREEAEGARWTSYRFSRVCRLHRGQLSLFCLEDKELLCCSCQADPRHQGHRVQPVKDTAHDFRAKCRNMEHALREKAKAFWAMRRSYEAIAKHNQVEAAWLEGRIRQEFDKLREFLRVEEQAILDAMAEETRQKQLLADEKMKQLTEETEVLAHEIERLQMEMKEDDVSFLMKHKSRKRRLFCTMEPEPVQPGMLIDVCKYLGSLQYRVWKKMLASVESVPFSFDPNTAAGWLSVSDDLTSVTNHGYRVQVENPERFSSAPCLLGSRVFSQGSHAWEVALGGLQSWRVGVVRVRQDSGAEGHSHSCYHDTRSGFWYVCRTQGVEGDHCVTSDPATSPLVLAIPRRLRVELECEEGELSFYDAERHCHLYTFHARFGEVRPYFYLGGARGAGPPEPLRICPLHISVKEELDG
Nature of the assay: co-IP.

No constants are given. Whether binding was seen depends on the method and setting. Binding seen in cells or lysates may run through a third protein. Some binding calls cover weakened binding; strength is not graded here. Where a sequence is shown, tags or fusion partners need not be part of it.

As to “VISA-Flag (virus-induced signaling adapter, Flag-tagged) (from UniProt Q7Z434 1-540)”, the binding result is given as “no binding”.

For the substance “WSN (H1N1) PB1 (polymerase basic protein 1) (from UniProt P03430 1-757)”, the binding entry is given as “no binding”.

With “WSN (H1N1) NP (nucleoprotein) (from UniProt P15682 1-498)”, the binding entry is recorded as “no binding”.

As for “WSN (H1N1) NA, Flag-tagged (from UniProt P03470 1-453)”, the binding entry is listed as “no binding”.

For the substance “WSN (H1N1) PB2 (polymerase basic protein 2), expressed from pCAGGS (from UniProt P03427 1-759)”, the binding entry is on record as “binds”.

On to “WSN (H1N1) HA, Flag-tagged (from UniProt P03454)”, for which the binding entry is “no binding”.

Take “WSN (H1N1) M1, Flag-tagged (from UniProt P05777 1-252)”: the binding result is “no binding”.
